Consider three substances from article PMC8178691.

“And” between values parts separate entries of the source, which are not always exact repeats. Equal values may be shown once.

The target of assay [1] is human purified plasma‐derived fibronectin (human). Briefly: BLI. (In general: BLI is a label-free optical method that tracks binding on a fibre tip over time.)
Assay [2] concerns the target Human type IV collagen (human) (UniProt P02462). Briefly: BLI.
In assay [3] the target is human purified plasma‐derived fibronectin (human). Briefly: ELISA.

As to “Wild‐type (WT) human recombinant von Willebrand factor (a stretch of the chain, sequence not shown) (natural protein)”, the dissociation constant (Kd) (usually the concentration at which binding is half-saturated) is 1.63 nM and 2.62 nM and 1.36 nM in assay [1]; 2.25 nM in assay [2].
As to “recombinant VWF p.H1786D (a stretch of the chain, sequence not shown) (natural protein)”, in assay [3], the binding as percent of normal VWF came to 70%.
In assay [3], “recombinant VWF p.T791M (a stretch of the chain, sequence not shown) (natural protein)” displayed a binding as percent of normal VWF of 64%.
